We go through 40 compounds from ChEMBL document CHEMBL4888484, “Replenishing the malaria drug discovery pipeline: Screening and hit evaluation of the MMV Hit Generation Library 1 (HGL1) against asexual blood stage Plasmodium falciparum ,using a nano luciferase reporter read-out” (2022).

Out of some 150,000 compounds screened, about 540 (0.36%) showed an effect of 50% or more. The list shows a part of the results.

For the experiment, the system named is Plasmodium falciparum. Briefly: Primary screen in NF54 nanoGlo assay, in single point, at 2uM, 72h; a lower Z score goes with more inhibition. The experiment is classed as functional, Erythrocyte. The conditions noted are these: timepoint 72 hour.

As usually defined, the % Inhibition is the relative decrease from the control value, in per cent.

With `CCCc1csc(NC(=O)N2CC[C@]3(CCN(C)C3)C2)n1`, the “% Inhibition” value was -1% and the Z score is listed as 0.28.

Consider `O=C(c1ccco1)N(Cc1nccn1Cc1cccc(C(F)(F)F)c1)CC1CC1`, for which the “% Inhibition” value came to 12% and the Z score is -1.49.

In the case of `c1ccc(Cc2nc3c(c(N4CCOCC4)n2)C2(CCCCC2)Cc2ccccc2-3)cc1`, the “% Inhibition” value is listed as -3% and the Z score was 0.38.

`COCc1nc(CNC(=O)C2(Nc3ccc(C)cc3)CCCC2)no1`: the “% Inhibition” value was -3% and the Z score came to 0.44.

With `Cn1ccnc1CNc1ccc(N2CCN(C(=O)OC(C)(C)C)CC2)cn1`, the “% Inhibition” value worked out at 1% and the Z score is on record as -0.18.

On to `Cc1cc(N2CCC3(CCCN3Cc3nccn3C)CC2)c2ccccc2n1`, for which the “% Inhibition” value was found to be 0% and the Z score is -0.02.

In the case of `O=C(CCOCC(F)(F)C(F)F)NCc1cccc(O)c1`, the “% Inhibition” value is 7% and the Z score is -0.82.

For `Cc1c(C)n(CC(O)CNC(C)c2ccccc2)c2c(Cl)cccc12` (stereo not given), the “% Inhibition” value was determined as 59% and the Z score is recorded as -7.71.

For `c1ccc(-c2cc(-c3ccccc3)c(Nc3nc(-c4cccs4)cs3)c(-c3ccccc3)c2)cc1`, the “% Inhibition” value is reported as -2% and the Z score is given as 0.35.

Consider `Cc1nn(C)c(=O)c(C(=O)N2CC[C@H](C(=O)N3CCCC3)C2)c1C`, for which the “% Inhibition” value is -10% and the Z score was found to be 1.23.

In the case of `CCc1nnc(CN2CCCc3c(F)c(F)cc(F)c32)o1`, the “% Inhibition” value is recorded as 40% and the Z score is on record as -3.82.

For the compound `Cc1[nH]c2ccccc2c1C(=O)[C@H](C)N(C)CC(=O)Nc1cccc(F)c1`, the “% Inhibition” value is -2% and the Z score is listed as 0.25.

For `CC(C)(CN1CCOCC1)CN1C[C@H](O)[C@@H](F)C1`, the “% Inhibition” value is listed as -8% and the Z score turned out to be 1.47.

Consider `CO[C@@H]1C[C@@H](c2nc(C3CC3)n[nH]2)N(Cc2cccc3c2OCCO3)C1`, for which the “% Inhibition” value amounted to 4% and the Z score was -0.6.

For `Cc1cccc(NCc2ccc(N3N=C(c4ccccc4)C[C@H]3c3ccccc3)cc2)c1`, the “% Inhibition” value was -1% and the Z score is given as 0.11.

`Cc1cc(Cl)ccc1OCC(=O)NCC(C)(C)CNC(=O)COc1ccc(Cl)cc1C`: the “% Inhibition” value is -1% and the Z score is 0.08.

On to `C[C@@H](CC(=O)Nc1cncnc1-n1cccn1)c1ccccc1`, for which the “% Inhibition” value is listed as 38% and the Z score is -4.91.

For the compound `O=C(CN1CCC[C@H](C(=O)Nc2nncs2)C1)Nc1ccnn1C1CCCC1`, the “% Inhibition” value stood at 6% and the Z score is listed as -0.87.

In the case of `CCc1nnsc1C(=O)N1C[C@@H]2CC[C@H]1CN(C(=O)c1cnccn1)C2`, the “% Inhibition” value is recorded as -9% and the Z score was found to be 1.7.

`O=C(NCCNc1cnccn1)c1cc(Cl)c[nH]1`: the “% Inhibition” value is recorded as -9% and the Z score is 1.27.

For `COc1ccc(CC(=O)N2CCC[C@H](n3ccnn3)C2)c(C)c1`, the “% Inhibition” value is on record as -8% and the Z score worked out at 1.14.

For the compound `COCc1ccc(C(=O)Nc2cc(Cl)ccc2NC2CC2)o1`, the “% Inhibition” value is on record as -8% and the Z score came to 1.26.

For the compound `Cn1ccc(CN2CCn3ccnc3C2)cc1=O`, the “% Inhibition” value was -6% and the Z score is on record as 1.15.

For the compound `Cc1ccc(C(=O)NC2CCS(=O)(=O)CC2)cc1Cl`, the “% Inhibition” value is on record as 17% and the Z score is on record as -2.23.

Take `COc1ccc(C)cc1S(=O)(=O)N1CCCCC[C@H]1c1ccn(C)n1`: the “% Inhibition” value was 0% and the Z score is -0.03.

With `CC(=O)N1CCC(C(=O)N[C@H]2CCN3C(=O)N(c4ccc(C)cc4)C(=O)[C@@H]3C2)CC1`, the “% Inhibition” value is 7% and the Z score is on record as -0.82.

On to `COc1ccc(CNC(=O)N2CCn3nnc(CCC(=O)NC4CC4)c3C2)cc1`, for which the “% Inhibition” value is on record as -8% and the Z score is given as 1.56.

Take `Cc1cc(C)cc(NC(=O)C2CCN(C(=O)NC3CCN(S(C)(=O)=O)CC3)CC2)c1`: the “% Inhibition” value was -10% and the Z score was found to be 1.43.

For `CCOCCN1C[C@]23C=C[C@H](O2)C(C(=O)N2CCc4n[nH]cc4C2)C3C1=O` (stereo not given in full), the “% Inhibition” value was -13% and the Z score is listed as 2.39.

Consider `Cn1cc(-c2n[nH]cc2C(=O)N2CCC[C@H](N3CCOCC3)CC2)cn1`, for which the “% Inhibition” value is recorded as -4% and the Z score was found to be 0.72.

As to `NC1(C(=O)N2CCOC(C3CCCO3)C2)CCCCC1` (stereo not given), the “% Inhibition” value is -13% and the Z score was 1.58.

Consider `CCCNC(=O)Cn1ncc2c(N3CCCCCC3)ncnc21`, for which the “% Inhibition” value is listed as -16% and the Z score was determined as 1.83.

As for `CCc1noc([C@H]2CCC(=O)N(Cc3ccccc3F)C2)n1`, the “% Inhibition” value is on record as -10% and the Z score is 1.92.

With `CCCC(C)(C)N(Cc1cccs1)C(=O)C1CCOCC1`, the “% Inhibition” value is 2% and the Z score is -0.28.

For `CC(C)N1C[C@@H](C(=O)N2CCCc3cc(S(C)(=O)=O)ccc32)CC1=O`, the “% Inhibition” value was -10% and the Z score was 1.84.

For `Cn1cc(CN2CCC(CC3CC3)(c3noc(C4CCOCC4)n3)CC2)c2ccccc21`, the “% Inhibition” value is recorded as -9% and the Z score is given as 1.23.

Turning to `COc1ccc(-c2nc3c(s2)CN(S(=O)(=O)c2ccc(C(C)=O)cc2)CC3)cc1`, the “% Inhibition” value is reported as -12% and the Z score worked out at 1.99.

For `CCOC(=O)[C@H](C)c1nc(-c2cccc(S(C)(=O)=O)c2)cs1`, the “% Inhibition” value is recorded as 10% and the Z score is on record as -1.97.

Take `CCC(=O)N(CC(=O)Nc1nc(-c2ccccc2)cn1-c1ccc(C(C)C)cc1)C[C@H]1CCCO1`: the “% Inhibition” value is reported as -13% and the Z score is 2.08.

`Cc1ccc(CNC(=O)CC2=Nc3ccccc3S(=O)(=O)N2)cc1`: the “% Inhibition” value is -2% and the Z score amounted to 0.38.
